From US20230080534A1, “SEMG2 ANTIBODY AND USE THEREOF” (SHANGHAI BIOTROY BIOTECHNIQUE CO., LTD., priority 2020, published 2023)

What was measured:
[1] = target: T1, binding between SEMG2 and CD27 (Homo sapiens, UniProt Q02383); assay: Antibody blocking ELISA of SEMG2 binding to CD27-Fc; conditions: antibody 10 μg/mL
T1 sequence (Q02383 24-582): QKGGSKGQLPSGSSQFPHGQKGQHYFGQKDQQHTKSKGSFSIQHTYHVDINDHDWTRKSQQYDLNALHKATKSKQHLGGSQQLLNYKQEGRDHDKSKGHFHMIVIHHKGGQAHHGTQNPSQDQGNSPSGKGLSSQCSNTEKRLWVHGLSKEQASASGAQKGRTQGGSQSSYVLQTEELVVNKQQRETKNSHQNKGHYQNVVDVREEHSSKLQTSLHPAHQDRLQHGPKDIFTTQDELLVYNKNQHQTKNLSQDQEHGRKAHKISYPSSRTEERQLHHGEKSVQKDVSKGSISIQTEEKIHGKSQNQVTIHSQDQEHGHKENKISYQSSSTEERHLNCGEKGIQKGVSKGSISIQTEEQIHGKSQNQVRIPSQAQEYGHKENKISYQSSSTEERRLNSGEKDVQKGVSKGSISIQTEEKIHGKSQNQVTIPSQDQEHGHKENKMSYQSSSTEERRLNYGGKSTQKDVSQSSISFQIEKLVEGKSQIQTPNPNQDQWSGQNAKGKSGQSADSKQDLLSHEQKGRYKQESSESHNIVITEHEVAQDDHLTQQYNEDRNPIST
Excerpt: Because SEMG2 (497-509) sequence fragment is the key epitope of SEMG2 binding to CD27, and has a relatively short sequence, so SEMG2 (497-509) was used as an immunogen to prepare antibodies, which is theoretically easier to obtain functional antibody molecules with the function of blocking the binding between SEMG2 and CD27 than using full-length SEMG2 to prepare antibodies. For direct comparison, the differences in effective concentration of producing antibody by the two methods were verified using ELISA in the examples. Antibodies produced with SEMG2 (497-509) as immunogen and antibodies produced with full-length SEMG2 were added into the enzyme-linked immunosorbent assay (ELISA) reaction system at different concentrations (10^-2, 10^-1, 10^0, 10^1, 10^2, 10^3, 10^4 μg/mL), and the ELISA binding values were measured. […] (5) After washing with PBST for 5 times, 20 min after developing with chromogenic agent, the A450 absorption value was read using the microplate reader. […]
Further, the effects of different antibodies on the binding between SEMG2 and CD27 were compared under the condition of the same antibody concentration. In the ELISA, the same concentration (10 μg/mL) of antibody was used, and the strength of the binding between SEMG2 and CD27 was measured. […]

[2] = target: T2, SEMG2(497-509) fragment (Homo sapiens, UniProt Q02383); assay: ELISA binding of antibodies to SEMG2(497-509) epitope
T2 construct: SEMG2(497-509) fragment and SEMG2(563-574) fragment were immobilized on the ELISA plate; made in house; host or cells: chemical synthesis
Protocol: Specifically, SEMG2 full-length protein (1-582), SEMG2(354-403) fragment, SEMG2(442-453) fragment, SEMG2(497-509) fragment and SEMG2(563-574) fragment were immobilized on the ELISA plate, and the same concentration of antibodies (MM02, MM05, MM07, MM08, MM13, MM14, HPA042767 and HPA042835) were added. Anti-mouse or anti-rabbit secondary antibodies were then used to detect the corresponding bound antibodies. MM02, MM05, MM07, MM08, MM13, and MM14 all bound to SEMG2(497509) epitope, HPA042767 bound to SEMG2 (354-403) epitope, and HPA042835 bound to […], while none of the antibodies bound to SEMG2 (442-453) control fragment.
Specifically, the preparation of polypeptide antigens and the screening of human natural antibody library were firstly performed. The SEMG2(497-509) polypeptide was synthesized and coupled to BSA and KLH, respectively, and screened in a fully human phage display antibody library. ELISA was used to select clones that bind to antigenic epitopes for preliminary screening. […] The binding ability and blocking function tests were performed after purification, that is, the effect of the antibody on binding between SEMG2 and CD27 was determined by the ELISA experiment.

[3] = test system: A375 human melanoma cells; assay: Tumor cell killing by activated PBMC, caspase-3/7 apoptosis; assay type: cell-based; conditions: A375, SEMG2-positive, co-culture with activated PBMC 10:1
Protocol: (§1) To test the above hypothesis, the effects of different epitope-specific antibodies on tumor cell killing by activated PBMC were compared. Specifically, A375 human melanoma and LOVO human colorectal cancer cells highly expressing SEMG2 were seeded in 96-well plate. Human peripheral blood mononuclear cells (PBMC; #70025, Stem Cell) were activated with 100 ng/mL of CD3 antibody, 100 ng/mL, of CD28 antibody, and 1.0 ng/mL of IL2 (#317303; #302913; #589102, BioLegend), respectively, and co-cultured with the above tumor cells at a ratio of 10:1 in presence of fluorescent caspase-3/7 substrate (#4440, Essen Bioscience). After 1.0 hours, cells were observed under fluorescence microscope.
(§2) To verify the above hypothesis, tumor cells with high SEMG2 expression (A375, LOVO) and SEMG2-negative tumor cells (DLD1, NCM460 and NCI-H1975) were selected. Different antibodies (irrelevant mouse IgG antibodies, MM02 or MM05 antibodies) were added during the PBMC killing experiments for the tumor cells.
(§3) To verify the effect of the human antibodies on the function of activated PBMC on tumor cell killing, A375 and LOVO cells were co-cultured with activated PBMC, and H88-93, H88-96, or H88-67 antibody was added at the same time, and the apoptosis ratio of tumor cells were detected.

[4] = test system: LOVO human colorectal cancer cells; assay: as above; assay type: cell-based; conditions: SEMG2-positive, co-culture with activated PBMC 10:1
Protocol: as §1, §2, §3

B1: H88-67: fully human antibody from phage library against SEMG2(497-509), VH SEQ ID NO:56, VL SEQ ID NO:59 (antibody, V domains shown)
VH: QVQLLESGGGVVQPGRSLRLSCAASGFTFSSYAMHWVRQAPGKGLEWVAVISYDGSNKYYADSVKGRFTISRDNSKNTLYLQMNSLRAEDTAVYYCARMDGSGSPDYWGQGTLVTVSS
VL: [about 100 residues left out here]PAFGQGTKVEIK
modifications: UNSURE (1)..(118) VH; UNSURE (1)..(112) VL
- effect on the binding between SEMG2 and CD27 [1]: inhibited the binding
- binding to SEMG2(497-509) epitope [2]: bind
- apoptosis tumor cell ratio / killing by activated PBMC [3]: significantly promote the killing
- apoptosis tumor cell ratio / killing by activated PBMC [4]: significantly promote the killing
